Data taken from the supplement of paper PMC10126150.
Values marked as one replicate rest on one cluster of the flow cell; about a third of the high ones do not repeat.

Test system: ATP
Assay: switch fluorescence ratio, 500 uM ATP over buffer (Cy3 cluster intensity, sum of 5 cycles each) (fold (ratio)); higher = stronger signal-on switching upon ATP binding; sequences stand for … in TCGTCGGCAGCGTCAGATGTGTATAAGAGACAGTTTTTTTTTTTTTTTTTTTTTTTTT…TC
Conditions: aptamer strand: ATP DNA aptamer (quencher-CACCTGGGGGAGTATTGCGGAGGAAGG + anchor), 100 nM annealed; ATP concentration: 500 uM; one replicate
Procedure, shortened: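 Per cluster, summed Cy3 intensity from the target cycles was divided by that from the buffer cycles to give the fluorescence ratio, then averaged per switch-domain sequence. Clusters outside 100-1000 RFU were excluded. The Cy3-labelled switching-strand clusters, on a modified Illumina MiSeq flow-cell, were annealed to 100 nM quencher-labelled ATP aptamer and imaged in selection buffer, then after 15 min with 500 uM ATP at 22 °C, for five cycles with NaOH stripping and re-annealing between them.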
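Also: ATP exposure 15 min at 22 °C before imaging.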

| Sequence | switch fluorescence ratio |
| --- | --- |
| TGAACTCGCC | 1.12 |
| GATAAGTGTG | 0.975 |
| AGGCCCGCTG | 1.02 |
| CTGTGGTGTA | 0.993 |
| CGGGCGTGCT | 0.978 |
| GAGTTCTCGA | 0.976 |
| GACTGCGGGT | 0.921 |
| AGAAGGAGAT | 0.981 |
| GTCATCTGCT | 0.999 |
| GCTTTAAAAC | 1.06 |
| AAACTGCGTG | 0.949 |
| GCCATATCGA | 1 |
| ACCGTCAGCC | 1.11 |
| CTGGGCTGAG | 1.01 |
| CATTTAATCG | 0.917 |
| GGACATTCCT | 1.56 |
| CACGAATCGA | 0.996 |
| TCCGCTCATA | 4.55 |
| TGGCGGGGG | 0.98 |
| ATTGACGGCT | 0.991 |
| TGTATGCAGA | 1.03 |
| CAAGGTCCTG | 0.979 |
| GTTCGAAAAG | 0.968 |

| Sequence | switch fluorescence ratio |
| --- | --- |
| CTCGGAGATA | 1.04 |
| ACTTGTGTTC | 0.957 |
| CCAAAGTTG | 1.13 |
| TGGAATCATT | 1.01 |
| TAAGTAGTGC | 1.01 |
| ACTTGCATGG | 1.29 |
| TTTGTGGAG | 0.998 |
| CGGCCGCCTA | 1.05 |
| CCGTATGT | 0.986 |
| GGCCTGCTGA | 1.09 |
| CCGAAGTACT | 1.44 |
| TACAGGACAG | 1.06 |
| CTGTGCTCCG | 1.18 |
| GTGCCTAAGC | 0.987 |
| ATTTGGCTTA | 0.985 |
| AGGGTTACAA | 1.02 |
| TATTCCCGCT | 1.87 |
| TAGAGGATGG | 1 |
| GAAATCCGGG | 0.985 |
| ACTGCGAGGG | 1.03 |
| AAGCCCTGTA | 0.975 |
| TTGCCAGGCA | 0.984 |
| AAGTTGACGA | 1.02 |

| Sequence | switch fluorescence ratio |
| --- | --- |
| CGTGGTGTGG | 1.01 |
| ACGTCGAGA | 1.01 |
| TGCCATAGTT | 1.01 |
| ACGAGGTTCG | 0.984 |
| CGAAATTGAT | 0.99 |
| CAGTGGACGA | 0.957 |
| GGACACACCA | 1.27 |
| GTGTCTAATT | 1.01 |
| GTAGAAAGCT | 1.21 |
| GCTAGGGGAT | 0.946 |
| GATCTCAGTG | 1.04 |
| AGCTGGGAAA | 0.952 |
| GTACTGAGAT | 1.03 |
| CAGGAGCCGC | 1.08 |
| ACCTCTGTGT | 1.03 |
| TGAGAGCAG | 1.05 |
| TGGGTGTGAG | 0.995 |
| GGCAAAAGCG | 1.01 |
| GGCTCCGAGC | 1.07 |
| AAACTTAGTC | 1.01 |
| CCTTGAGTGA | 1.22 |
| GGGGGCGAGA | 1 |
| TGGAGTAAGT | 1.03 |

| Sequence | switch fluorescence ratio |
| --- | --- |
| TGCCTTGTGT | 1.01 |
| TTCTGACCTA | 1.05 |
| GGCGCCACTG | 0.956 |
| GCTAGCGGGG | 1.03 |
| GACGGACTTA | 1.14 |
| ATATAGAGAG | 1.01 |
| GGAGGAGAC | 1.72 |
| GGGGTATGCA | 0.95 |
| ACCCTTTTGA | 1.04 |
| AACTGCTCGA | 1.03 |
| AACGAGTGAA | 1.03 |
| AGTTATTCAT | 0.993 |
| ATGCTACTTT | 0.993 |
| CTCGCTACTG | 1.5 |
| CAGGGCATGT | 0.987 |
| ATTTATGAC | 1.06 |
| TAATTTCTCA | 1.07 |
| CTTGTACTT | 0.991 |
| AGTATTTGTT | 1.04 |
| GTCCTAGAGG | 1.02 |
| TCCAGATTCG | 0.952 |
| ACCAAGCATA | 1.34 |
| TGTTTCACTC | 1.02 |

| Sequence | switch fluorescence ratio |
| --- | --- |
| TCGGCTAAG | 0.991 |
| AATGTGCCC | 1.06 |
| CAATAAGTGG | 0.999 |
| AAATAACCAT | 1.04 |
| CCGATCACAC | 3.11 |
| GATTAGTAGT | 0.996 |
| CTAGCATGTG | 0.999 |
| TCTTGCTCTT | 1 |
| TAAGCACTGT | 1.16 |
| ATACCTTAGG | 1.06 |
| CTACGATAGG | 1.04 |
| AATTTTCAGC | 1.11 |
| GTTACGGAGT | 0.997 |
| ACTATAGGCG | 0.991 |
| ACAGTAACGC | 1.07 |
| TACTCGCTCT | 1.06 |
| TAAAATGAA | 0.994 |
| ATTACGAGCA | 1.2 |
| CTAGTTCTTG | 1.02 |
| AAGGACAGAG | 0.947 |
| TGATACTTGC | 1.11 |
| ATGGTTGCA | 0.985 |
| CAGTGAAAAC | 1.02 |

| Sequence | switch fluorescence ratio |
| --- | --- |
| ACAGTGTCGA | 1.06 |
| AACAAAAGGC | 0.982 |
| GATCCTTTTC | 1.11 |
| GCCTGCCGTA | 0.996 |
| TGGCACTTGC | 1.01 |
| AGCCGGGTCA | 1.07 |
| GGATGGGATC | 0.944 |
| AGAAAGGAGA | 0.989 |
| TAAAACTATA | 1.06 |
| GCTAGCGCGC | 0.982 |
| TCGGCAGTAT | 1.04 |
| ATTTCGCATA | 1.62 |
| CATAATCAGA | 0.986 |
| AGGGGTGTAC | 1 |
| GCTCTTCATG | 1.01 |
| ATCACCGCCG | 1.09 |
| ACGTTATCCC | 1.13 |
| GATCTAGCAA | 1.48 |
| TGAGCAAGAA | 2.29 |
| GTCTTTCTTA | 1.03 |
| CAGTGGATAG | 0.998 |
| ATATTAACCA | 0.996 |
| GGGCGAGAAA | 1.01 |

| Sequence | switch fluorescence ratio |
| --- | --- |
| GAACTCACGG | 1.35 |
| AGGGTTCGCT | 1.02 |
| ATTGGATTTC | 1.05 |
| AGGGTCATAA | 0.988 |
| GTTTGCCGA | 1.06 |
| TCGTCTCCTA | 0.997 |
| GCGTAGAACA | 0.967 |
| CCATTCAGCC | 1.01 |
| TGGAAAAGTG | 1.03 |
| GCCTGAACTG | 1.07 |
| TGCTCCCCTT | 1.61 |
| AATCAATAGC | 1.02 |
| TTTGGGACCC | 1.04 |
| GAATCGTGGA | 0.993 |
| TTTCTTTAGG | 1.01 |
| ATAGGCTTTA | 0.979 |
| CGTCACATTT | 0.959 |
| CTAATATAGG | 0.988 |
| GCGTTAGACC | 0.989 |
